Measured values taken from EPA's CvTdb concentration-time database.
This continues a long series; more values of the same kind are listed elsewhere.

How the values were obtained:
Assay in all cases: concentration in plasma after dosing
Rat [1] = conditions: 0.5 h; dosed: Dibromoacetic acid; 25 mg/kg; iv; Female; F344
Rat [2] = conditions: dosed: Dibromoacetic acid, 25 mg/kg, iv, Male, F344
Rat [3] = conditions: dosed: Dibromoacetic acid, 25 mg/kg, iv, Male, F344; remark: listed apart in the source
Rat [4] = conditions: dosed: Dibromoacetic acid, 125 mg/kg, oral, Female, Harlan Sprague Dawley
Rat [5] = conditions: dosed: Dibromoacetic acid, 25 mg/kg, iv, Female, F344
Rat [6] = conditions: 5 min; dosed: Dibromoacetic acid; 125 mg/kg; oral; Male; F344
Rat [7] = conditions: dosed: Dibromoacetic acid, 25 mg/kg, iv, Female, F344; remark: listed apart in the source
Rat [8] = conditions: dosed: Dibromoacetic acid, 125 mg/kg, oral, Female, Harlan Sprague Dawley; remark: listed apart in the source
Rat [9] = conditions: dosed: Dibromoacetic acid, 125 mg/kg, oral, Female, Harlan Sprague Dawley; remark: listed apart in the source
Rat [10] = conditions: dosed: Dibromoacetic acid, 50 mg/kg, oral, Female, Harlan Sprague Dawley
Rat [11] = conditions: 5 min; dosed: Dibromoacetic acid; 50 mg/kg; oral; Male; F344
Rat [12] = conditions: 10 min; dosed: Dibromoacetic acid; 125 mg/kg; oral; Male; F344
Rat [13] = conditions: dosed: Dibromoacetic acid, 25 mg/kg, iv, Female, F344; remark: listed apart in the source
Rat [14] = conditions: dosed: Dibromoacetic acid, 25 mg/kg, iv, Male, F344; remark: listed apart in the source
Rat [15] = conditions: dosed: Dibromoacetic acid, 50 mg/kg, oral, Female, Harlan Sprague Dawley; remark: listed apart in the source
Rat [16] = conditions: dosed: Dibromoacetic acid, 125 mg/kg, oral, Male, F344
Rat [17] = conditions: dosed: Potassium Perfluorobutane Sulfonate, 20 mg/kg, oral, Female, Harlan Sprague Dawley
Rat [18] = conditions: 12 h; dosed: Potassium Perfluorobutane Sulfonate; 20 mg/kg; oral; Male; Harlan Sprague Dawley
Rat [19] = conditions: 1.5 h; dosed: Potassium Perfluorobutane Sulfonate; 20 mg/kg; oral; Female; Harlan Sprague Dawley
Rat [20] = conditions: dosed: Potassium Perfluorobutane Sulfonate, 4 mg/kg, oral, Female, Harlan Sprague Dawley
Rat [21] = conditions: 0.75 h; dosed: Potassium Perfluorobutane Sulfonate; 20 mg/kg; oral; Female; Harlan Sprague Dawley
Rat [22] = conditions: 1.5 h; dosed: Potassium Perfluorobutane Sulfonate; 20 mg/kg; oral; Female; Harlan Sprague Dawley; remark: listed apart in the source
Rat [23] = conditions: dosed: Potassium Perfluorobutane Sulfonate, 100 mg/kg, oral, Male, Harlan Sprague Dawley
Rat [24] = conditions: dosed: Potassium Perfluorobutane Sulfonate, 100 mg/kg, oral, Female, Harlan Sprague Dawley
Rat [25] = conditions: dosed: Potassium Perfluorobutane Sulfonate, 100 mg/kg, oral, Male, Harlan Sprague Dawley; remark: listed apart in the source
Rat [26] = conditions: dosed: Potassium Perfluorobutane Sulfonate, 100 mg/kg, oral, Male, Harlan Sprague Dawley; remark: listed apart in the source
Rat [27] = conditions: 1 h; dosed: Potassium Perfluorobutane Sulfonate; 20 mg/kg; oral; Female; Harlan Sprague Dawley
Rat [28] = conditions: dosed: Potassium Perfluorobutane Sulfonate, 100 mg/kg, oral, Male, Harlan Sprague Dawley; remark: listed apart in the source
Rat [29] = conditions: 1.5 h; dosed: Potassium Perfluorobutane Sulfonate; 4 mg/kg; oral; Female; Harlan Sprague Dawley
Rat [30] = conditions: 6 h; dosed: Potassium Perfluorobutane Sulfonate; 20 mg/kg; oral; Female; Harlan Sprague Dawley
Rat [31] = conditions: dosed: Potassium Perfluorobutane Sulfonate, 4 mg/kg, oral, Female, Harlan Sprague Dawley; remark: listed apart in the source
Rat [32] = conditions: dosed: Potassium Perfluorobutane Sulfonate, 100 mg/kg, oral, Female, Harlan Sprague Dawley; remark: listed apart in the source
Rat [33] = conditions: dosed: Potassium Perfluorobutane Sulfonate, 100 mg/kg, oral, Female, Harlan Sprague Dawley; remark: listed apart in the source
Rat [34] = conditions: dosed: Potassium Perfluorobutane Sulfonate, 100 mg/kg, oral, Male, Harlan Sprague Dawley; remark: listed apart in the source

O=C(O)C(Br)Br [Dibromoacetic acid]
concentration in plasma (Rat [1]): 13500 ng/mL
concentration in plasma (Rat [2]; 7 min): 43200 ng/mL
concentration in plasma (Rat [2]; 50 min): 4140 ng/mL
concentration in plasma (Rat [3]; 2 min): 67300 ng/mL
concentration in plasma (Rat [3]; 40 min): 6470 ng/mL
concentration in plasma (Rat [4]; 20 min): 92900 ng/mL
concentration in plasma (Rat [4]; 3 h): 7150 ng/mL
concentration in plasma (Rat [5]; 20 min): 21000 ng/mL
concentration in plasma (Rat [5]; 1 h): 2520 ng/mL
concentration in plasma (Rat [6]): 56200 ng/mL
concentration in plasma (Rat [7]; 5 min): 52800 ng/mL
concentration in plasma (Rat [7]; 0.75 h): 5640 ng/mL
concentration in plasma (Rat [8]; 1 h): 101000 ng/mL
concentration in plasma (Rat [8]; 2 h): 33600 ng/mL
concentration in plasma (Rat [9]; 1 h): 71600 ng/mL
concentration in plasma (Rat [9]; 2 h): 36700 ng/mL
concentration in plasma (Rat [10]; 0.75 h): 23300 ng/mL
concentration in plasma (Rat [10]; 4 h): 1700 ng/mL
concentration in plasma (Rat [11]): 8430 ng/mL
concentration in plasma (Rat [12]): 32500 ng/mL
concentration in plasma (Rat [13]; 2 min): 67600 ng/mL
concentration in plasma (Rat [13]; 40 min): 5210 ng/mL
concentration in plasma (Rat [14]; 5 min): 51900 ng/mL
concentration in plasma (Rat [14]; 0.75 h): 5340 ng/mL
concentration in plasma (Rat [15]; 0.5 h): 38200 ng/mL
concentration in plasma (Rat [15]; 6 h): 351 ng/mL
concentration in plasma (Rat [16]; 20 min): 57800 ng/mL
concentration in plasma (Rat [16]; 3 h): 22300 ng/mL

O=S(=O)([O-])C(F)(F)C(F)(F)C(F)(F)C(F)(F)F.[K+] [Potassium Perfluorobutane Sulfonate]
concentration in plasma (Rat [17]; 5 min): 4450 ng/mL
concentration in plasma (Rat [17]; 9 h): 356 ng/mL
concentration in plasma (Rat [18]): 11800 ng/mL
concentration in plasma (Rat [19]): 34900 ng/mL
concentration in plasma (Rat [20]; 5 min): 720 ng/mL
concentration in plasma (Rat [20]; 3 h): 3290 ng/mL
concentration in plasma (Rat [21]): 48000 ng/mL
concentration in plasma (Rat [22]): 25400 ng/mL
concentration in plasma (Rat [23]; 1.5 h): 166000 ng/mL
concentration in plasma (Rat [23]; 48 h): 41.3 ng/mL
concentration in plasma (Rat [24]; 0.25 h): 97900 ng/mL
concentration in plasma (Rat [24]; 6 h): 54700 ng/mL
concentration in plasma (Rat [25]; 0.75 h): 247000 ng/mL
concentration in plasma (Rat [25]; 12 h): 31400 ng/mL
concentration in plasma (Rat [26]; 1 h): 205000 ng/mL
concentration in plasma (Rat [26]; 24 h): 2180 ng/mL
concentration in plasma (Rat [27]): 27600 ng/mL
concentration in plasma (Rat [28]; 0.25 h): 116000 ng/mL
concentration in plasma (Rat [28]; 6 h): 68700 ng/mL
concentration in plasma (Rat [29]): 6570 ng/mL
concentration in plasma (Rat [30]): 587 ng/mL
concentration in plasma (Rat [31]; 0.75 h): 11100 ng/mL
concentration in plasma (Rat [31]; 12 h): 51.5 ng/mL
concentration in plasma (Rat [32]; 5 min): 21700 ng/mL
concentration in plasma (Rat [32]; 3 h): 75200 ng/mL
concentration in plasma (Rat [33]; 0.75 h): 155000 ng/mL
concentration in plasma (Rat [33]; 12 h): 549 ng/mL
concentration in plasma (Rat [34]; 1.5 h): 202000 ng/mL
concentration in plasma (Rat [34]; 48 h): 99.2 ng/mL
